Assay results: publication PMC4336329 (PLoS ONE, 2015)
Among all 310,000 compounds or so, about 2,200 (0.71%) showed an effect of 50% or more. Effects have a minus sign here. The list shows a part of the results.

target: human ether-à-go-go-related gene (hERG) potassium channel (human, UniProt Q12809); assay: primary screen, population patch clamp on CHO cells stably expressing hERG
Sequence (Q12809 whole entry, looked up): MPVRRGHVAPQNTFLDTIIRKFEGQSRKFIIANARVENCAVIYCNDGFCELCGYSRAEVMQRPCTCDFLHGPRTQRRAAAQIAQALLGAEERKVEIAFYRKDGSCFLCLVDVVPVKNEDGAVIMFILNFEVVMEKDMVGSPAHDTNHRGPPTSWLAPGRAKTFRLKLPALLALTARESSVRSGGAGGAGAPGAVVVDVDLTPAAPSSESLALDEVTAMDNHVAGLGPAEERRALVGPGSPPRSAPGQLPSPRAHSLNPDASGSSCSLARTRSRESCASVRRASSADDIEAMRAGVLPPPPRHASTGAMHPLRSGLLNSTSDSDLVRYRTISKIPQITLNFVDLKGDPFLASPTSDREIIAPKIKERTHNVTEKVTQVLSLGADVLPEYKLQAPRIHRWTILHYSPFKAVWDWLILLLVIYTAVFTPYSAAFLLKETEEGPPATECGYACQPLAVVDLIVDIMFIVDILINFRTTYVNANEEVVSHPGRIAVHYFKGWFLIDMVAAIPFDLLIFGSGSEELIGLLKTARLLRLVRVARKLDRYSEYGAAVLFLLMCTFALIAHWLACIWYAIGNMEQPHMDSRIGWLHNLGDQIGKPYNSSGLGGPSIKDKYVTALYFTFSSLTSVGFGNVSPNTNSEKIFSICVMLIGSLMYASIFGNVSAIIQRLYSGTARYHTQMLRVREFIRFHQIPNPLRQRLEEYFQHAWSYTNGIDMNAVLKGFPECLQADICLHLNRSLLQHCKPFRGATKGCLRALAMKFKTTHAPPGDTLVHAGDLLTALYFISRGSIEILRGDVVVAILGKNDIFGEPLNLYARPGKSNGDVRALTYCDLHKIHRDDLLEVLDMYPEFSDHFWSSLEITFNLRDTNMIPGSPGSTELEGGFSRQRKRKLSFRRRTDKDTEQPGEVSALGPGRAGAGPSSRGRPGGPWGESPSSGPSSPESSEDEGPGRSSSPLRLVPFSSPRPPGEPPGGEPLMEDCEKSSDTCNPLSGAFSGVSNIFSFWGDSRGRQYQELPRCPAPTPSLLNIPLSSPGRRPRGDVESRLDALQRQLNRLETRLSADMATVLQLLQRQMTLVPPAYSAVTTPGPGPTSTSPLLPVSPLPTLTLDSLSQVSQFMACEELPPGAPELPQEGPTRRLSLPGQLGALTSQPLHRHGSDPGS

With CCc1ccc2[nH]c(=O)c(CN(Cc3ccco3)C(=S)NCC3CCCO3)cc2c1 (stereo not drawn) as the compound, how does the “hERG current change (%, negative = inhibition) at 1uM” value read?
The value was 3.57%.

Cc1nc(NC(=O)CC(C)C)sc1-c1csc(Nc2ccc(Cl)cc2Cl)n1 was tested. Which “hERG current change (%, negative = inhibition) at 1uM” value did it give?
The value was 7.2%.

Cc1ccc(CN(C)C(=O)COc2ccc(S(=O)(=O)N3CCCC3)cc2[N+](=O)[O-])c(C)c1 was tested. Which “hERG current change (%, negative = inhibition) at 1uM” value did it give?
The value was 9.34%.

Which “hERG current change (%, negative = inhibition) at 1uM” value does the source give for Cc1cc(OC(C)C(=O)NCc2ccncc2)c2c(C)cc(=O)oc2c1 (stereo not drawn) here?
The value was -0.612%.

How did the “hERG current change (%, negative = inhibition) at 1uM” value turn out when Cc1ccccc1N1CCN(C2CCCN(C(=O)CCN3CCCCO3)C2)CC1 (stereo not drawn) was run?
The value was -5.43%.

For Cc1cc(N(CCCl)CCCl)ccc1/C=N/N=C(\N)c1cnccn1, which “hERG current change (%, negative = inhibition) at 1uM” value is on record?
Its value is 5.65%.

For Cc1cc(C)n2nc(SCC(=O)N(CCC#N)c3ccc(F)cc3)nc2n1, which “hERG current change (%, negative = inhibition) at 1uM” value is on record?
Its value is 6.78%.

How did the “hERG current change (%, negative = inhibition) at 1uM” value turn out when CC1CCCC(NC(=O)CCCn2c(=O)[nH]c3cc(Cl)ccc3c2=O)C1C (stereo not drawn) was run?
The value was 12.7%.

Which “hERG current change (%, negative = inhibition) at 1uM” value does the source give for C=CCNc1nc(NCc2ccco2)nc(OCC)n1 here?
Its value is 5.62%.

How did the “hERG current change (%, negative = inhibition) at 1uM” value turn out when CC1CN(C(=O)CCS(=O)(=O)c2ccccc2)CC(C)O1 (stereo not drawn) was run?
Its value is 18.4%.

For O=C(NCCN1CCCCCC1)C1CCC(CNS(=O)(=O)c2cccc3cccnc23)CC1 (stereo not drawn), which “hERG current change (%, negative = inhibition) at 1uM” value is on record?
Its value is 0.919%.

Which “hERG current change (%, negative = inhibition) at 1uM” value does the source give for CC(O)c1nc2ccccc2n1C(C)c1ccccc1 (stereo not drawn) here?
The value was 15.5%.

How did the “hERG current change (%, negative = inhibition) at 1uM” value turn out when CCNC(=O)COC(=O)CCNC(=O)c1cccc(C)c1 was run?
Its value is 0.0285%.

For N#C/C(=C\c1cn(CCOc2ccccc2)c2ccccc12)C(=O)NCC1CCCO1 (stereo not drawn), which “hERG current change (%, negative = inhibition) at 1uM” value is on record?
Its value is -1.18%.

How did the “hERG current change (%, negative = inhibition) at 1uM” value turn out when Cc1ccc(N2CC(C(=O)OCC(=O)c3ccc[nH]3)CC2=O)cc1 (stereo not drawn) was run?
Its value is -0.975%.

How did the “hERG current change (%, negative = inhibition) at 1uM” value turn out when O=C(/C=C/c1ccccc1)N1CCN(CCN2C(=O)c3cccc4cccc(c34)C2=O)CC1 was run?
The value was 1.77%.

O=C(O)c1ccccc1-c1cn2cc(Cl)ccc2n1 was tested. Which “hERG current change (%, negative = inhibition) at 1uM” value did it give?
The value was 14.8%.

For Cc1ccc(OCCCCN2CCc3ccccc3C2)c(C)c1.Cl, which “hERG current change (%, negative = inhibition) at 1uM” value is on record?
Its value is 12.5%.

COc1cc(C(C(=O)NCc2ccccc2)N(C(=O)c2snc(C(N)=O)c2N)C2CCCC2)cc(OC)c1OC (stereo not drawn) was tested. Which “hERG current change (%, negative = inhibition) at 1uM” value did it give?
Its value is 0.544%.

Which “hERG current change (%, negative = inhibition) at 1uM” value does the source give for CCN1C(c2ccccc2)=C(c2ccccc2)S/C1=C\C=C1/SC(=S)N(C)C1=O here?
Its value is 14.9%.

For Cc1ccc(NC(=S)N/N=C2/CCCc3c(C)cc(C)cc32)cc1, which “hERG current change (%, negative = inhibition) at 1uM” value is on record?
The value was -14.1%.

Cc1ccc(CN(c2ccc(C(=O)Nc3cccnc3)cc2)S(C)(=O)=O)cc1 was tested. Which “hERG current change (%, negative = inhibition) at 1uM” value did it give?
Its value is -1.43%.

How did the “hERG current change (%, negative = inhibition) at 1uM” value turn out when O=C(C1CCC(C(=O)N2CCCCC2)CC1)N1CCCCC1 (stereo not drawn) was run?
The value was 13.8%.

For CCNC(=S)N(Cc1ccccc1)Cc1nc2ccccc2c(=O)[nH]1, which “hERG current change (%, negative = inhibition) at 1uM” value is on record?
The value was -4.75%.
